# Measured values published in patent US7335484B2, “Retinoid metabolizing protein” (Queen's University at Kingston, priority 1996, dated 2008).
# Assays:
# [1] = system: P450RAI mRNA in MCF7 cells
# [2] = target: T1, retinoic acid receptor-β (RAR-β) (Homo sapiens, UniProt P10826); conditions: cited from earlier work
# T1 sequence (P10826 1-455): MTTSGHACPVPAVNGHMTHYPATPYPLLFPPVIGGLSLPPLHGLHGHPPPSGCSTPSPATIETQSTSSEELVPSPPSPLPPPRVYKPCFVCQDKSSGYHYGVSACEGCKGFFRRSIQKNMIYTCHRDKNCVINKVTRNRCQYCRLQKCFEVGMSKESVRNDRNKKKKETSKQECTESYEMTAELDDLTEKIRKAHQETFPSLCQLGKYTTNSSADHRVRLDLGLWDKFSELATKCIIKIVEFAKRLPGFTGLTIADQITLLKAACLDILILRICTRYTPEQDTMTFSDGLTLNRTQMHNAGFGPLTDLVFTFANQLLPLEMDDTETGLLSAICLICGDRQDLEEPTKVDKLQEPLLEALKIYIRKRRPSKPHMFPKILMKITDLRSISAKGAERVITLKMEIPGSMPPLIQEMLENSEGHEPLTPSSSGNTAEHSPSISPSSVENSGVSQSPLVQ
# [3] = system: cellular retinoic acid binding protein (CRABP); conditions: cited from earlier work
# RAR-γ = target: T2, RAR-γ (Homo sapiens, UniProt P13631); conditions: cited from earlier work
# T2 sequence (P13631 1-454): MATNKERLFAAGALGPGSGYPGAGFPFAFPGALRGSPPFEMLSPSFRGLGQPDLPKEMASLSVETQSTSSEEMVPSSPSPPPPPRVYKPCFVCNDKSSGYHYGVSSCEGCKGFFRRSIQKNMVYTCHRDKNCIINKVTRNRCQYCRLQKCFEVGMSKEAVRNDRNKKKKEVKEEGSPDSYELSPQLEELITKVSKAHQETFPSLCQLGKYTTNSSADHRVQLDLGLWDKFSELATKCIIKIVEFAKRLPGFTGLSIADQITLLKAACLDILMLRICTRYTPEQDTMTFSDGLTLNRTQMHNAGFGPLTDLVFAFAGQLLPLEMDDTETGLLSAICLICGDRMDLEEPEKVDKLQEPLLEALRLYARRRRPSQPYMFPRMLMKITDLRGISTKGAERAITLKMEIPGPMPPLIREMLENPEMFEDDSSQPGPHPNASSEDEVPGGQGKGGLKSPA
# [4] = in vivo; cited from earlier work
smiles,measurement,setting,value
CC1(C)CCC(C)(C)c2cc(C(=O)Nc3ccc(C(=O)O)cc3)ccc21 [Am580],"metabolism in MCF7 cells, concluded from persistent P450RAI message",[1],resilient to metabolism
"CC1=C(/C=C/C(C)=C/C=C/C(C)=C/C(=O)O)C(C)(C)CCC1 [RA, all-trans retinoic acid]",P450RAI message level between 24 and 48 hours,[1],declined sharply
"CC1=C(/C=C/C(C)=C/C=C/C(C)=C/C(=O)O)C(C)(C)CCC1=O [4-oxo-RA, 4-oxo-retinoic acid]",binding affinity to RAR-β,[2],affinity comparable to all-trans RA
same,binding affinity to CRABP,[3],affinity slightly lower than that of all-trans RA
same,binding to RAR-γ,RAR-γ,poorly
CC(=O)N1CCN(c2ccc(OCC3COC(Cn4ccnc4)(c4ccc(Cl)cc4Cl)O3)cc2)CC1 (stereo not drawn) [ketoconazole],effect on RA pharmacokinetics,[4],shown to modulate RA pharmacokinetics in vivo
